Test results reported in article PMC9911399, “Two distinct binding modes provide the RNA-binding protein RbFox with extraordinary sequence specificity”.
Positions count from the first letter of the chain named. Some of the results follow.

T1: RBFOX1 RRM RbFoxmut (Fox-RRM*) (Homo sapiens, UniProt Q9NWB1 109-208, R118D;E147R;N151S;E152T)
T1 sequence: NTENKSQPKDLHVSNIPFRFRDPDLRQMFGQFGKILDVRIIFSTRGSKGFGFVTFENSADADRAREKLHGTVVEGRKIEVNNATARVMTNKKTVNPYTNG

B1: GCAAAAU (DNA:RNA)
RNA: GGGAGACCGGAAUUCAGAUUGUCCGCAAAAUUUAAAUCCCGUCGUAGCCACCA
DNA 1: CAATCTGAATTCCGGTCTCCC
DNA 2: TGGTGGCTACGACGGGATT
B2: GGCACCC (DNA:RNA)
RNA: B1 RNA with C26G, A27C, A29C, A30C, U31C
DNA 1: CAATCTGAATTCCGGTCTCCC
DNA 2: TGGTGGCTACGACGGGATT
B3: UUGACUA (DNA:RNA)
RNA: B1 RNA with G25U, C26U, A27G, A29C, A30U, U31A
DNA 1: CAATCTGAATTCCGGTCTCCC
DNA 2: TGGTGGCTACGACGGGATT
B4: GAAGGUU (DNA:RNA)
RNA: B1 RNA with C26A, A28G, A29G, A30U
DNA 1: CAATCTGAATTCCGGTCTCCC
DNA 2: TGGTGGCTACGACGGGATT
B5: ACGUGGU (DNA:RNA)
RNA: B1 RNA with G25A, A27G, A28U, A29G, A30G
DNA 1: CAATCTGAATTCCGGTCTCCC
DNA 2: TGGTGGCTACGACGGGATT
B6: GCGAACG (DNA:RNA)
RNA: B1 RNA with A27G, A30C, U31G
DNA 1: CAATCTGAATTCCGGTCTCCC
DNA 2: TGGTGGCTACGACGGGATT
B7: CGGAUGA (DNA:RNA)
RNA: B1 RNA with G25C, C26G, A27G, A29U, A30G, U31A
DNA 1: CAATCTGAATTCCGGTCTCCC
DNA 2: TGGTGGCTACGACGGGATT
B8: UAUUGAA (DNA:RNA)
RNA: B1 RNA with G25U, C26A, A27U, A28U, A29G, U31A
DNA 1: CAATCTGAATTCCGGTCTCCC
DNA 2: TGGTGGCTACGACGGGATT
B9: AGCGAAG (DNA:RNA)
RNA: B1 RNA with G25A, C26G, A27C, A28G, U31G
DNA 1: CAATCTGAATTCCGGTCTCCC
DNA 2: TGGTGGCTACGACGGGATT
B10: CACAACA (DNA:RNA)
RNA: B1 RNA with G25C, C26A, A27C, A30C, U31A
DNA 1: CAATCTGAATTCCGGTCTCCC
DNA 2: TGGTGGCTACGACGGGATT
B11: UGAACGU (DNA:RNA)
RNA: B1 RNA with G25U, C26G, A29C, A30G
DNA 1: CAATCTGAATTCCGGTCTCCC
DNA 2: TGGTGGCTACGACGGGATT
B12: UGCACCA (DNA:RNA)
RNA: B1 RNA with G25U, C26G, A27C, A29C, A30C, U31A
DNA 1: CAATCTGAATTCCGGTCTCCC
DNA 2: TGGTGGCTACGACGGGATT
B13: CAUGAAU (DNA:RNA)
RNA: B1 RNA with G25C, C26A, A27U, A28G
DNA 1: CAATCTGAATTCCGGTCTCCC
DNA 2: TGGTGGCTACGACGGGATT
B14: UCCUUCU (DNA:RNA)
RNA: B1 RNA with G25U, A27C, A28U, A29U, A30C
DNA 1: CAATCTGAATTCCGGTCTCCC
DNA 2: TGGTGGCTACGACGGGATT
B15: UCUAUUG (DNA:RNA)
RNA: B1 RNA with G25U, A27U, A29U, A30U, U31G
DNA 1: CAATCTGAATTCCGGTCTCCC
DNA 2: TGGTGGCTACGACGGGATT
B16: GUCUCUG (DNA:RNA)
RNA: B1 RNA with C26U, A27C, A28U, A29C, A30U, U31G
DNA 1: CAATCTGAATTCCGGTCTCCC
DNA 2: TGGTGGCTACGACGGGATT
B17: CGAUUCC (DNA:RNA)
RNA: B1 RNA with G25C, C26G, A28U, A29U, A30C, U31C
DNA 1: CAATCTGAATTCCGGTCTCCC
DNA 2: TGGTGGCTACGACGGGATT
B18: UCCGGCU (DNA:RNA)
RNA: B1 RNA with G25U, A27C, A28G, A29G, A30C
DNA 1: CAATCTGAATTCCGGTCTCCC
DNA 2: TGGTGGCTACGACGGGATT
B19: GGUGAGU (DNA:RNA)
RNA: B1 RNA with C26G, A27U, A28G, A30G
DNA 1: CAATCTGAATTCCGGTCTCCC
DNA 2: TGGTGGCTACGACGGGATT
B20: AUCUCAC (DNA:RNA)
RNA: B1 RNA with G25A, C26U, A27C, A28U, A29C, U31C
DNA 1: CAATCTGAATTCCGGTCTCCC
DNA 2: TGGTGGCTACGACGGGATT

The binders below were run against T1, RBFOX1 RRM RbFoxmut (Fox-RRM*) (assay: EMSA; HiTS-Eq, 1 nM pool, 10 min; buffer printed only for the single-RNA assays: 10 mM Tris pH 7.5, 150 mM NaCl, 3.4 mM EDTA, 0.001% NP-40, 30 C). Conditions: tags: His6 N-terminal (pET28a); label: 5' 32P.
Summary of the method: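 Purified RbFox RRM (wild type or mutant) was equilibrated for 10 min in 50 µL with 1 nM of a 5′-radiolabelled pool of RNA with 7 randomized nucleotides, its flanks annealed to DNA oligonucleotides, across increasing protein concentrations. Free RNA was separated by 8% native PAGE, excised, reverse-transcribed, PCR-barcoded and sequenced on an Illumina HiSeq 2500. Relative association constants came from read-count changes of each variant against the control reaction, normalised to the cognate motif.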

Row | Binder | binding signal
1 | B1 | 0.105 KA relative to UGCAUGU
2 | B2 | 0.111 KA relative to UGCAUGU
3 | B3 | 0.09 KA relative to UGCAUGU
4 | B4 | 0.0588 KA relative to UGCAUGU
5 | B5 | 0.136 KA relative to UGCAUGU
6 | B6 | 0.354 KA relative to UGCAUGU
7 | B7 | 0.235 KA relative to UGCAUGU
8 | B8 | 0.0865 KA relative to UGCAUGU
9 | B9 | 0.108 KA relative to UGCAUGU
10 | B10 | 0.103 KA relative to UGCAUGU
11 | B11 | 0.242 KA relative to UGCAUGU
12 | B12 | 0.158 KA relative to UGCAUGU
13 | B13 | 0.114 KA relative to UGCAUGU
14 | B14 | 0.0598 KA relative to UGCAUGU
15 | B15 | 0.125 KA relative to UGCAUGU
16 | B16 | 0.124 KA relative to UGCAUGU
17 | B17 | 0.0745 KA relative to UGCAUGU
18 | B18 | 0.0755 KA relative to UGCAUGU
19 | B19 | 0.101 KA relative to UGCAUGU
20 | B20 | 0.113 KA relative to UGCAUGU
